From PubChem BioAssay AID1963576 (National Center for Advancing Translational Sciences (NCATS), 2024)
About 60 (0.1%) of roughly 46,000 compounds were called active. About 3% were inconclusive and are not listed. Calls follow the shape of the dose curve; as a rule, active = well fitted inhibition curve with a large enough effect; inconclusive = small, poorly fitted or top-dose-only effect; inactive = no such curve, though single readings can be large or run the other way. The list shows a part of the results.

Experiment: Primary qHTS assay for Inhibitors of ovarian cancer metastasis using an organotypic tumor microenvironment (TME) model. Also: nearly all actives have a fitted effect of over 65% in size.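 As to Potency: count of GFP cancer cells still attached after washing and fixation.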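 As to activity change, negative = inhibition: plate controls were DMSO wells for no effect and tomatine positive control wells for full effect.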
Conditions: SKOV3ip1-GFP adhesion/invasion on 3D omental model, fluorescence; series mostly up to 45.8 µM; activity change, negative = inhibition: at the top concentration
In short: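 qHTS, 4-pt dose (0.36-46 umol/L); SKOV3ip1-GFP, 1,200 cells/well, no FBS; primary omental fibroblast/mesothelial co-culture 48 h pre-grown; 2 h RT + 16 h 37 C; PBS wash, 4% PFA; GFP count 488/509 nm.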
Potency is read from the fitted curve at half-maximal effect.

Activity change, negative = inhibition, inactive:
CN1CCN(C(=O)c2ccc3c(c2)N(Cc2ccc(F)cc2)C(=O)c2ccccc2S3(=O)=O)CC1 9.19%
CCOCCCN(Cc1ccco1)C(=O)c1cc2c(s1)-c1c(C)cccc1OC2 -29.8%
COc1ccc(C(=O)c2cn(CC(=O)Nc3cc(C)ccc3C)c3nc(C)ccc3c2=O)cc1 1.69%
CC(C)Oc1ccc(CNC(=O)C2=Cc3ccccc3OC2)cc1 -1.23%
CCc1ccc(C2CC(=O)Nc3c2c(=O)n(C)c2ncnn32)cc1 (stereo unspecified) -14.4%
CCOC(=O)N[C@H](Cc1c[nH]c2ccccc12)C(=O)Nc1cccc(Cl)c1 -1.75%
COc1ccc(N2CCN(C(CNC(=O)c3ccc(OC)c(OC)c3)c3cccnc3)CC2)cc1 (stereo unspecified) -17.1%
CCn1c(CN2CCN(C)CC2)nc2cc(NC(=O)c3ccc([N+](=O)[O-])cc3)ccc21 -6.28%
NC(=O)C1CCN(c2csc3ccc(F)cc3c2=O)CC1 10.7%
CCCCSc1nnc2c(n1)OC(c1ccc(Br)s1)Nc1ccccc1-2 (stereo unspecified) 6.76%
Cc1ccc(-c2nc(CSc3nnc(C)n4c3cc3occc34)c(C)o2)cc1 42.8%
Cc1ccc(NC(=O)CN(Cc2ccccc2)S(=O)(=O)c2ccc3nc(C)sc3c2)c(C)c1 1.6%
CCOc1ccc(-c2nc(-c3ccccc3)c(-c3ccccc3)[nH]2)cc1OCC -6.61%
O=S(=O)(NCCc1nnc2ccc(SCc3ccccc3Cl)nn12)c1ccccc1 13.4%
Cc1cc(N2CCC(C)CC2)nc2ccc(NC(=O)Cc3ccccc3Br)cc12 -1.38%
CC(C)Cn1cc(NC(=O)N2CCN(c3cccc(C(F)(F)F)c3)CC2)c2ccccc2c1=O -1.55%
COc1ccc(CNC(=O)c2c(O)nc3c(C)cccn3c2=O)cc1 1.12%
CCCCOC(=O)c1ccc(-n2nnc3c(sc4nc(C)cc(C)c43)c2=O)cc1 2.82%
Cc1cccc2nc(-c3ccccn3)c(Nc3ccccc3)n12 -13.7%
Cc1ccc(CNC(=O)Cn2ccn(-c3cccc(Cl)c3)c(=O)c2=O)cc1 4.25%
O=C1CSC2(C(=O)N(Cc3cccc(C(F)(F)F)c3)c3ccccc32)N1c1ccc(F)c(F)c1 (stereo unspecified) -0.836%
N#Cc1ccccc1CSc1nnc(-c2ccc(Br)cc2)o1 6.84%
Cc1ccc2c(CC(=O)N(Cc3ccc(N(C)C)cc3)Cc3ccco3)coc2c1C -3.17%
Cc1ccc2oc(-c3ccc(C)c(NC(=O)/C=C/c4ccco4)c3)nc2c1 -9.54%
O=C(NCc1ccccc1Cl)c1nnc(Cc2cccc(F)c2)o1 11.6%
CCCOc1ccc(C2C(=O)N(C3CCC(C)CC3)CC(=O)N2CCc2ccccc2)cc1OC (stereo unspecified) -5.77%
Cc1ccc(-c2noc(CNC(=O)c3ccc(C)c(Cl)c3)n2)cc1 3.51%
CCc1ccc(OCC(=O)N(Cc2ccc(C(C)C)cc2)C2CCS(=O)(=O)C2)cc1 (stereo unspecified) -18.9%
O=C(Nc1ccccc1C(F)(F)F)c1ccc(F)c(S(=O)(=O)N2CCc3ccccc3C2)c1 4.45%
C[C@]12CC[C@@H]3c4ccc(O)cc4CC[C@H]3[C@H]1C[C@@H](O)[C@H]2O 4.43%
Cc1ccc(NC(=O)c2nc(S(C)(=O)=O)ncc2N(Cc2ccc(C(C)(C)C)cc2)Cc2ccco2)cc1C 4.59%
CN(C(=O)CCc1nc(-c2ccccc2F)no1)c1ccc(Cl)cc1 3.88%
CCOc1ccc(-c2cc3c(=O)n(CC(=O)NCc4ccc(C)cc4)ccn3n2)cc1 3.03%
CCN1CCSc2ccc(C(=O)NCc3ccc(OC(C)C)cc3)cc21 -5.15%
CCn1cc(C(=O)OCC(=O)Nc2ccc(C)c(Cl)c2)c(=O)c2ccc(C)nc21 -3.53%
COc1ccc(-c2noc(CSCC(=O)Nc3cc(OC)c(OC)c(OC)c3)n2)cc1OC 18.7%
CCc1cccc(NC(=O)C2CCCN(c3ncnc4onc(-c5ccc(F)cc5)c34)C2)c1 (stereo unspecified) 6.66%
Cc1ccc(NC(=O)c2c(C)cc(C)nc2SCC(=O)Nc2ccc(Br)cc2)cc1 -18.1%
CC(=O)N1c2ccccc2CC1C(=O)N1CCN(c2ccccc2)CC1 (stereo unspecified) 2.98%
CCOC(=O)Cc1ccc(NC(=O)NCc2c(-n3cccc3)sc3c2CCCC3)cc1 8.81%
COc1ccc(N(Cc2cc3ccccc3[nH]c2=O)C(=O)c2cccc(Cl)c2)cc1 11.6%
CCCCN1CC(c2nc3ccccc3n2CCCCOc2cc(C)ccc2C)CC1=O (stereo unspecified) -2.98%
CCOc1ccc(N2CC(NC(=O)c3ccco3)CC2=O)cc1 (stereo unspecified) 1.66%
O=C(/C=C/c1ccccc1)Nc1cc(-c2nc3cc(Cl)ccc3o2)ccc1Cl 1.66%
Cc1cccc(OCC(=O)Nc2cccc(OCc3cc(=O)n4cccc(C)c4n3)c2)c1 -15.6%
Cc1cc2nc(-c3cccc(NC(=O)c4cccc5ccccc45)c3)oc2cc1C -9.31%
CCOCCCNC(=O)c1ccc(-n2c(-c3ccccc3)cc3c2CCCC3)cc1 8.23%
CCSc1ncc(Cl)c(C(=O)N2CCN(c3ccccc3OC)CC2)n1 -29.3%
Cc1cc(C)c(NC(=O)Cn2c(=O)c3cccn3c3ccccc32)c(C)c1 -2.29%
COc1cccc(-n2ccnc2SCC(=O)Nc2c(C)cc(C)cc2C)c1 -5.72%
COc1ccc(Cn2ccc3nc(C)c(C(=O)Nc4ccc(OC)cc4)cc3c2=O)cc1 0.468%
Cc1cccc(C(=O)OCc2cc(=O)n3ccsc3n2)c1 6.85%
O=c1cc(-c2ccc(O)cc2)oc2cc(O)cc(O)c12 -0.608%
CC(=O)Nc1nc2n(n1)C(c1ccc(F)cc1)C=C(c1ccc(Cl)cc1)N2 (stereo unspecified) -5.15%
Cc1ccc(-n2c(C)cc(C(=O)C(=O)Nc3ccccc3)c2C)c(C)c1 6.61%
Cc1ccc(-c2nc(C)c(CCNC(=O)c3cccs3)s2)cc1 4.51%
CC(=O)c1cccc(NC(=O)C2CCN(S(=O)(=O)c3ccc4c(c3)CCCN4C(C)=O)CC2)c1 7.17%
CC(C)c1ccc(NC(=O)C2CCN(C(=O)c3ccc(F)cc3)CC2)cc1 3.87%
Cc1ccc(CN2CCCn3nc(C(=O)NCCc4ccccc4C)cc3C2=O)cc1 -5.4%
CCc1cccc(NC(=O)c2cc3c(=O)n(Cc4ccccc4)ccc3nc2C)c1 6.56%
C[C@H](NC(=O)c1sccc1OCc1ccc(Cl)cc1)c1ccccc1 -5.83%
Cc1c(C(=O)OCc2ccccc2)[nH]c2c1C(=O)CC(c1ccc(C(C)(C)C)cc1)C2 (stereo unspecified) -0.887%
CC1CCN(c2nn3c(=O)c(C(=O)NCCCOC(C)C)cnc3s2)CC1 -0.939%
Cc1cccc(N(C)c2nc3ccc(C(=O)c4ccccc4)cc3n3c(C)nnc23)c1 -7.38%
Cc1ccc(-n2nc(C(=O)Nc3ccc(F)cc3F)c3c4ccccc4n(C)c3c2=O)cc1 -0.24%
Cc1ccc(C)c(NC(=O)CN(C)S(=O)(=O)c2cccc3nsnc23)c1 6.36%
CCCCCOc1ccc(/C=C/C(=O)Nc2sc(C)c(C)c2C(=O)OCC)cc1OC -29.6%
Cc1ccc(C)c(NC(=O)Cn2c(=O)n(CCC(C)C)c(=O)c3cccnc32)c1 -3.69%
Cc1ccc(NC(=O)CSc2nc(=O)n(Cc3cccnc3)c3c2CCC3)cc1F -2.34%
COc1ccc(NC(=O)Cn2nnc(C(=O)NCc3cccs3)c2N)cc1 -3.03%
Cc1ccc(-c2csc(-c3nc(-c4ccc(Br)s4)cs3)n2)cc1 -14.6%
CCN(CC)CCNC(=O)Cn1ncc2c3ccccc3n(Cc3ccc(Cl)cc3)c2c1=O -10.2%
CCc1cccc(C)c1NC(=O)c1cc(S(=O)(=O)N(Cc2ccc(C(=O)OC)cc2)Cc2ccc(OC)c(OC)c2)ccc1F -8.85%
CCC(CC)C(=O)Nc1ccc2nc(SCC(=O)N3CCCC3)sc2c1 -10.4%
COc1ccc(NC(=O)CN2C(=O)CC(c3ccc(C)c(C)c3)=Nc3ccccc32)cc1OC 4.71%

outcome, inactive:
COc1ccc(NC(=O)CSc2nnc(-c3ccncc3)n2-c2ccccc2)cc1
COc1ccccc1N1CCN(CC(O)COc2ccc(Cl)c(C)c2)CC1 (stereo unspecified)
CN(C)c1ccc(CNC(=O)CCCN2C(=O)c3cccnc3Oc3ccc(Cl)cc32)cc1
COc1cccc(-c2cc(C(F)(F)F)n3ncc(C(=O)OC(C)C)c3n2)c1
Cc1ccc(-n2c(C)cc(/C=C(\C#N)C(=O)Nc3ccc(C)c(C)c3)c2C)cc1
CCN(CC)C(=O)C1=C(C)Nc2nc3ccccc3n2C1c1cccc(OC)c1 (stereo unspecified)
O=S(=O)(c1ccc(OC(F)(F)F)cc1)N1CCC(c2nnnn2-c2ccc(F)cc2)CC1
CCCC(O)c1nc2ccccc2n1CCCOc1ccc(Cl)cc1 (stereo unspecified)
COc1cc(C(=O)NCC(c2ccc3c(c2)OCO3)N2CCOCC2)cc(OC)c1OC (stereo unspecified)
O=C(CS(=O)(=O)c1cccc2nsnc12)Nc1ccccc1Cl
CCc1nc2ccc(C(=O)NCCc3ccccc3OC)cc2nc1CC
Cc1ccc(NC(=O)/C=C\C(=O)N(c2ccc(C(C)C)cc2)C(C(=O)NCc2ccco2)c2ccc(Cl)cc2)cc1 (stereo unspecified)
CCCCNC(=O)c1ccc2c(c1)N(Cc1ccc(F)cc1)C(=O)c1ccccc1S2=O (stereo unspecified)
COc1ccc(CNC(=O)C2CCN(S(=O)(=O)c3c(C)noc3/C=C/c3ccccc3F)CC2)cc1
COc1ccc(CCNC(=O)CCn2c(=O)c3ccccc3n(Cc3ccccc3F)c2=O)cc1OC
CC(C(=O)NCCSCc1cccc(Cl)c1)N(c1ccccc1)S(C)(=O)=O (stereo unspecified)
COc1cc(C(=O)Nc2ccccc2-c2nc(-c3ccccc3)no2)cc(OC)c1OC
CCN(CC)c1nc2ccccc2nc1C(=O)Nc1ccc(C(C)=O)cc1
COc1ccccc1NC(=O)Cn1cc(S(=O)(=O)Cc2ccccc2)c2ccccc21
CC(C)(C)C1CCc2c(sc(NC(=O)c3cc4ccccc4c(=O)o3)c2C(N)=O)C1 (stereo unspecified)

Potency, active:
COc1ccc(OC)c(NC(=O)c2nc(S(=O)(=O)Cc3ccc(F)cc3)ncc2Cl)c1 6.31 µM
